# The supplement of paper PMC3334620
# Whole data set: some 33,000 sequences, median “E-score (-0.5 to 0.5)” near -0.011, cut for the highest 2% near 0.28. The list shows a part of the results.
# Biological target: T1, Gcr1 (UniProt P07261)
# T1 sequence: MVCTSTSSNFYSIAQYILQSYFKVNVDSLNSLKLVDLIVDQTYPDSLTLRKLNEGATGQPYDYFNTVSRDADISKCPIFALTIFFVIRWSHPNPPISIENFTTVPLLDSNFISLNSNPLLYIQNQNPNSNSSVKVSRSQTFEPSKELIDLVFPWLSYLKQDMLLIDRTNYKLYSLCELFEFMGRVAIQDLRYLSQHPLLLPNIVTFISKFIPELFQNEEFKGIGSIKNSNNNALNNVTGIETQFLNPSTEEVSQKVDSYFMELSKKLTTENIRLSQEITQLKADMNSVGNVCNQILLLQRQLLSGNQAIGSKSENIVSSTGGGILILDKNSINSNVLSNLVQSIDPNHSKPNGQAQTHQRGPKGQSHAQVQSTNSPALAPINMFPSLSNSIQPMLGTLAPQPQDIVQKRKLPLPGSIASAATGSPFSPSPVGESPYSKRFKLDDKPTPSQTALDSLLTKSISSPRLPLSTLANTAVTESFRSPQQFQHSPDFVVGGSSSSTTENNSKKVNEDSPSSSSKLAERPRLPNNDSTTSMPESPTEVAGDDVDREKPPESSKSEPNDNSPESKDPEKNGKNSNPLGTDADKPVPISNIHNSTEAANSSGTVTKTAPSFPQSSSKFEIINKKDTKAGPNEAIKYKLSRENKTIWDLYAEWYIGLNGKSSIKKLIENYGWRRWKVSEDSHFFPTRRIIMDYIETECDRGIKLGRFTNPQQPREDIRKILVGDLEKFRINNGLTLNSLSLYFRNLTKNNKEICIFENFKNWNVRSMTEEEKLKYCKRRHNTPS
# Assay: PBM E-score (8-mer binding enrichment) (E-score (-0.5 to 0.5)); higher = stronger / more preferred TF binding; most listed sequences are background and not binding sites
# Details: protein concentration: 100 nM; construct: GST-full length
# Summary of the method: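 Detection of bound protein used fluorescent anti-GST, with scans normalised by masliner. The proteins were GST-tagged yeast transcription factors applied at about 100-200 nM to universal all-10-mer Agilent arrays made double-stranded by primer extension. Each ungapped eight-base word, pooled with its reverse complement, was scored with an E-score from the Universal PBM Analysis Suite.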
row,Sequence,PBM E-score
1,AATCCCCG,0.0568
2,ATCCGGGC,0.248
3,AATTAATT,-0.113
4,AGGACGTG,-0.284
5,GTTCTCGA,-0.0256
6,CTAGTGTC,-0.0816
7,AACTTATT,0.249
8,AACGGTTA,-0.00858
9,ACACTAGC,-0.0237
10,AGACCACT,-0.00966
11,AATAAGTC,-0.175
12,GCCAGCGA,-0.0966
13,CCATCAAC,-0.172
14,AATAGTAT,0.0931
15,CAATGAAG,-0.293
16,CTATGTTC,0.0281
17,AACAGAGA,-0.0971
18,ATGGGGCC,-0.135
19,CATGAAAA,0.217
20,GGGAACCC,0.336
21,CCGGCTCG,0.0641
22,CGACGAGA,-0.328

row,Sequence,PBM E-score
1,GCCTGTAC,-0.0148
2,CACTTCGC,-0.0699
3,CGGGGGTC,-0.185
4,AAATACAA,0.19
5,CGGACACG,0.0963
6,AACTGTAG,-0.147
7,AAGTATCC,0.145
8,CACAACCA,0.0206
9,CCGACTCG,-0.102
10,AGATTTGG,0.0673
11,TACATCAA,0.136
12,AAGCGGCG,0.193
13,AATTCTGC,0.109
14,GAGTGGGC,-0.0425
15,CTATTGCC,-0.193
16,GCAGAGCC,-0.26
17,AACACTGA,-0.0184
18,CACGCTAG,-0.106
19,ACTCCATG,-0.00702
20,CCGAAACC,-0.0279
21,AGAATCAA,0.169
22,AACGGAAG,0.266

row,Sequence,PBM E-score
1,CCGTTCAA,-0.17
2,GTAATCCA,0.154
3,CGGCGTGC,-0.094
4,GGGCTAAC,-0.244
5,AACTCATC,-0.0389
6,AGCTTGTG,0.00924
7,GTTGCCCA,0.146
8,GGATCCCC,0.362
9,CATCTGCA,-0.131
10,CTTGGCCC,0.0663
11,GTGCTACA,-0.119
12,CGCGAATC,0.0843
13,ACCAAGAA,0.0619
14,AAGTAGTA,0.0545
15,ATACTCCC,-0.0419
16,AGGGAGAC,-0.17
17,CCTCTGGC,0.0297
18,ACGTGGAA,0.0214
19,ATTTAGCA,0.115
20,TAGCAGAA,0.11
21,AGGATGAG,-0.056
22,TTCGAAAA,0.0588

row,Sequence,PBM E-score
1,AGGTTTAA,0.0624
2,CCGGCGAG,-0.161
3,GAGGGAGC,-0.0814
4,CGTCAGTA,-0.17
5,AAAACGAG,-0.0573
6,ACTGCTTG,-0.151
7,ACTACAGA,0.0743
8,ATCCCCTG,0.01
9,TGATATAA,-0.249
10,CACGTCCA,-0.0463
11,AGACCTGA,-0.0403
12,TCCTTAGA,0.0718
13,CAGCCGAC,-0.163
14,ATTAGTTA,0.102
15,AAGCCATC,-0.143
16,ATGCTGAA,0.0622
17,GTCATCAC,-0.247
18,GCCTCTCC,0.0384
19,AATATTAG,0.0775
20,ATCGCGCA,-0.0489
